Reference: patent publication US20150210998A1

Target: GST-E6AP ligase (wild-type, bacterially expressed fusion protein) (human) (UniProt Q05086)
Assay: cell-based or functional assay

K½ for decrease in the initial rate of polyubiquitin chain formation: 1 µM
Substance: recombinant free glutathione-S-transferase (GST) (a stretch of the chain, sequence left out)
